The other results are listed elsewhere or left out. Many values rest on one well or one pass, so single values are uncertain.
Tests used:
Assay in all cases: cell count relative to DMSO control; melanoma cells; higher = more viable cells
Conditions in all cases: library dose: low library concentration; 72 h
[1] = system: MZ2-MEL
[2] = system: MeWo
[3] = system: RPMI7951
[4] = system: RVH-421
[5] = system: SkMel28
[6] = system: SkMel30
[7] = system: UACC62
[8] = system: SkMel5
[9] = system: UACC257
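Note: cell number obtained by counting DAPI-stained nuclei in high-throughput microscope images with image analysis software, screen run in 1,536-well plates.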

## CO[C@H]1C[C@@H]2CC[C@@H](C)[C@@](O)(O2)C(=O)C(=O)N2CCCC[C@H]2C(=O)O[C@H]([C@H](C)C[C@@H]2CC[C@@H](OCCO)[C@H](OC)C2)CC(=O)[C@H](C)/C=C(\C)[C@@H](O)[C@@H](OC)C(=O)[C@H](C)C[C@H](C)/C=C/C=C/C=C/1C [everolimus] + CS(=O)(=O)CCNCc1ccc(-c2ccc3ncnc(Nc4ccc(OCc5cccc(F)c5)c(Cl)c4)c3c2)o1 [lapatinib] (first compound 0.02 µM, partner dose 0.8 µM)
[1]
  cell count: 79.3%
[2]
  cell count: 61.3%
[3]
  cell count: 69.2%
[4]
  cell count: 73.5%
[5]
  cell count: 44.1%
[6]
  cell count: 68%
[7]
  cell count: 58.2%

## CO[C@H]1C[C@@H]2CC[C@@H](C)[C@@](O)(O2)C(=O)C(=O)N2CCCC[C@H]2C(=O)O[C@H]([C@H](C)C[C@@H]2CC[C@@H](OCCO)[C@H](OC)C2)CC(=O)[C@H](C)/C=C(\C)[C@@H](O)[C@@H](OC)C(=O)[C@H](C)C[C@H](C)/C=C/C=C/C=C/1C [everolimus] + O=c1cc(-c2cccc3c2Sc2ccccc2S3)oc(N2CCOCC2)c1 [KU55933] (first compound 0.02 µM, partner dose 1 µM)
[1]
  cell count: 84%
[2]
  cell count: 72.6%
[3]
  cell count: 63%
[4]
  cell count: 85.7%
[5]
  cell count: 65.2%
[6]
  cell count: 73.7%
[8]
  cell count: 101%
[9]
  cell count: 81.3%
[7]
  cell count: 75.7%

## CO[C@H]1C[C@@H]2CC[C@@H](C)[C@@](O)(O2)C(=O)C(=O)N2CCCC[C@H]2C(=O)O[C@H]([C@H](C)C[C@@H]2CC[C@@H](OCCO)[C@H](OC)C2)CC(=O)[C@H](C)/C=C(\C)[C@@H](O)[C@@H](OC)C(=O)[C@H](C)C[C@H](C)/C=C/C=C/C=C/1C [everolimus] + O=C(Nc1ccccc1)c1cc([N+](=O)[O-])ccc1Cl [GW9662] (first compound 0.02 µM, partner dose 2 µM)
[1]
  cell count: 73.9%
[2]
  cell count: 58.6%
[3]
  cell count: 81.6%
[4]
  cell count: 78.3%
[5]
  cell count: 51.2%
[6]
  cell count: 53.1%
[8]
  cell count: 108%
[9]
  cell count: 73%
[7]
  cell count: 61.8%

## CO[C@H]1C[C@@H]2CC[C@@H](C)[C@@](O)(O2)C(=O)C(=O)N2CCCC[C@H]2C(=O)O[C@H]([C@H](C)C[C@@H]2CC[C@@H](OCCO)[C@H](OC)C2)CC(=O)[C@H](C)/C=C(\C)[C@@H](O)[C@@H](OC)C(=O)[C@H](C)C[C@H](C)/C=C/C=C/C=C/1C [everolimus] + CC(C)(C)c1cnc(CSc2cnc(NC(=O)C3CCNCC3)s2)o1 [SNS-032] (first compound 0.02 µM, partner dose 0.01 µM)
[1]
  cell count: 79.7%
[2]
  cell count: 67.8%
[3]
  cell count: 78%
[4]
  cell count: 80.3%
[5]
  cell count: 66.5%
[6]
  cell count: 62.2%
[8]
  cell count: 95.9%
[9]
  cell count: 56.8%
[7]
  cell count: 67.8%

## CO[C@H]1C[C@@H]2CC[C@@H](C)[C@@](O)(O2)C(=O)C(=O)N2CCCC[C@H]2C(=O)O[C@H]([C@H](C)C[C@@H]2CC[C@@H](OCCO)[C@H](OC)C2)CC(=O)[C@H](C)/C=C(\C)[C@@H](O)[C@@H](OC)C(=O)[C@H](C)C[C@H](C)/C=C/C=C/C=C/1C [everolimus] + Oc1cc(-c2nc(-c3ccccc3)[nH]c2-c2ccncc2)ccc1Cl [L779450] (first compound 0.02 µM, partner dose 0.2 µM)
[1]
  cell count: 66.6%
[2]
  cell count: 68.4%
[3]
  cell count: 77.4%
[4]
  cell count: 70.8%
[5]
  cell count: 45.8%
[6]
  cell count: 74.5%
[8]
  cell count: 95%
[9]
  cell count: 57.2%
[7]
  cell count: 61.5%

## CO[C@H]1C[C@@H]2CC[C@@H](C)[C@@](O)(O2)C(=O)C(=O)N2CCCC[C@H]2C(=O)O[C@H]([C@H](C)C[C@@H]2CC[C@@H](OCCO)[C@H](OC)C2)CC(=O)[C@H](C)/C=C(\C)[C@@H](O)[C@@H](OC)C(=O)[C@H](C)C[C@H](C)/C=C/C=C/C=C/1C [everolimus] + C=CCNC1=C2C[C@@H](C)C[C@H](OC)[C@H](O)[C@@H](C)/C=C(\C)[C@H](OC(N)=O)[C@@H](OC)/C=C\C=C(/C)C(=O)NC(=CC1=O)C2=O [Tanespimycin] (first compound 0.02 µM, partner dose 0.002 µM)
[1]
  cell count: 71%
[2]
  cell count: 67%
[3]
  cell count: 69.5%
[4]
  cell count: 93.7%
[5]
  cell count: 54.1%
[6]
  cell count: 64.5%
[7]
  cell count: 66.3%

## CO[C@H]1C[C@@H]2CC[C@@H](C)[C@@](O)(O2)C(=O)C(=O)N2CCCC[C@H]2C(=O)O[C@H]([C@H](C)C[C@@H]2CC[C@@H](OCCO)[C@H](OC)C2)CC(=O)[C@H](C)/C=C(\C)[C@@H](O)[C@@H](OC)C(=O)[C@H](C)C[C@H](C)/C=C/C=C/C=C/1C [everolimus] + O=S(=O)(c1ccccc1)N(CC(F)(F)F)c1ccc(C(O)(C(F)(F)F)C(F)(F)F)cc1 [T0901317] (first compound 0.02 µM, partner dose 1.4 µM)
[1]
  cell count: 73.1%
[2]
  cell count: 72.8%
[3]
  cell count: 87.9%
[4]
  cell count: 80.2%
[5]
  cell count: 51.4%
[6]
  cell count: 50.4%
[8]
  cell count: 85.9%
[9]
  cell count: 58.4%
[7]
  cell count: 61.1%

## CO[C@H]1C[C@@H]2CC[C@@H](C)[C@@](O)(O2)C(=O)C(=O)N2CCCC[C@H]2C(=O)O[C@H]([C@H](C)C[C@@H]2CC[C@@H](OCCO)[C@H](OC)C2)CC(=O)[C@H](C)/C=C(\C)[C@@H](O)[C@@H](OC)C(=O)[C@H](C)C[C@H](C)/C=C/C=C/C=C/1C [everolimus] + Cn1cc(/C=C2\C(=O)Nc3cccnc32)c2ccccc21 [GW441756] (first compound 0.02 µM, partner dose 0.4 µM)
[1]
  cell count: 78.9%
[2]
  cell count: 64.8%
[3]
  cell count: 78.2%
[4]
  cell count: 84.2%
[5]
  cell count: 52%
[6]
  cell count: 65%
[8]
  cell count: 75.9%
[9]
  cell count: 54.3%
[7]
  cell count: 57.3%

## CO[C@H]1C[C@@H]2CC[C@@H](C)[C@@](O)(O2)C(=O)C(=O)N2CCCC[C@H]2C(=O)O[C@H]([C@H](C)C[C@@H]2CC[C@@H](OCCO)[C@H](OC)C2)CC(=O)[C@H](C)/C=C(\C)[C@@H](O)[C@@H](OC)C(=O)[C@H](C)C[C@H](C)/C=C/C=C/C=C/1C [everolimus] + CCCCCCCCCCCC1=C(O)C(=O)C=C(O)C1=O [Embelin] (first compound 0.02 µM, partner dose 1.2 µM)
[1]
  cell count: 87.4%
[2]
  cell count: 84.7%
[3]
  cell count: 84.6%
[4]
  cell count: 79.9%
[5]
  cell count: 54.4%
[6]
  cell count: 58.5%
[8]
  cell count: 120%
[9]
  cell count: 75.2%
[7]
  cell count: 61.9%

## CO[C@H]1C[C@@H]2CC[C@@H](C)[C@@](O)(O2)C(=O)C(=O)N2CCCC[C@H]2C(=O)O[C@H]([C@H](C)C[C@@H]2CC[C@@H](OCCO)[C@H](OC)C2)CC(=O)[C@H](C)/C=C(\C)[C@@H](O)[C@@H](OC)C(=O)[C@H](C)C[C@H](C)/C=C/C=C/C=C/1C [everolimus] + CCN(CC)CCCCNc1ncc2cc(-c3cc(OC)cc(OC)c3)c(NC(=O)NC(C)(C)C)nc2n1 [PD173074] (first compound 0.02 µM, partner dose 0.1 µM)
[1]
  cell count: 74.8%
[2]
  cell count: 76.7%
[3]
  cell count: 94%
[4]
  cell count: 93.4%
[5]
  cell count: 58.3%
[6]
  cell count: 79.2%
[8]
  cell count: 129%
[9]
  cell count: 66.8%
[7]
  cell count: 57.9%

## CO[C@H]1C[C@@H]2CC[C@@H](C)[C@@](O)(O2)C(=O)C(=O)N2CCCC[C@H]2C(=O)O[C@H]([C@H](C)C[C@@H]2CC[C@@H](OCCO)[C@H](OC)C2)CC(=O)[C@H](C)/C=C(\C)[C@@H](O)[C@@H](OC)C(=O)[C@H](C)C[C@H](C)/C=C/C=C/C=C/1C [everolimus] + COc1cc(N2CCC(N3CCN(C)CC3)CC2)ccc1Nc1ncc(Cl)c(Nc2ccccc2S(=O)(=O)C(C)C)n1 [NVP-TAE684] (first compound 0.02 µM, partner dose 0.08 µM)
[1]
  cell count: 78.4%
[2]
  cell count: 63.4%
[3]
  cell count: 77.1%
[4]
  cell count: 82.3%
[5]
  cell count: 62.8%
[6]
  cell count: 55.7%
[8]
  cell count: 80.4%
[9]
  cell count: 57.8%
[7]
  cell count: 66.5%

## CO[C@H]1C[C@@H]2CC[C@@H](C)[C@@](O)(O2)C(=O)C(=O)N2CCCC[C@H]2C(=O)O[C@H]([C@H](C)C[C@@H]2CC[C@@H](OCCO)[C@H](OC)C2)CC(=O)[C@H](C)/C=C(\C)[C@@H](O)[C@@H](OC)C(=O)[C@H](C)C[C@H](C)/C=C/C=C/C=C/1C [everolimus] + COc1ccc(Cl)c(Nc2nc3ccccc3nc2NS(=O)(=O)c2cccc(NC(=O)C(C)(C)N)c2)c1 [XL147] (first compound 0.02 µM, partner dose 0.8 µM)
[1]
  cell count: 64.9%
[2]
  cell count: 64.6%
[3]
  cell count: 87.3%
[4]
  cell count: 76.1%
[5]
  cell count: 48.5%
[6]
  cell count: 82.1%
[7]
  cell count: 61.4%

## CO[C@H]1C[C@@H]2CC[C@@H](C)[C@@](O)(O2)C(=O)C(=O)N2CCCC[C@H]2C(=O)O[C@H]([C@H](C)C[C@@H]2CC[C@@H](OCCO)[C@H](OC)C2)CC(=O)[C@H](C)/C=C(\C)[C@@H](O)[C@@H](OC)C(=O)[C@H](C)C[C@H](C)/C=C/C=C/C=C/1C [everolimus] + COc1ccc2c(c1)CCC1C2CCC2(C)C(NCCCCCCN3C(=O)C=CC3=O)CCC12 [U73122] (first compound 0.02 µM, partner dose 0.4 µM)
[1]
  cell count: 73.1%
[2]
  cell count: 69.1%
[3]
  cell count: 76.8%
[4]
  cell count: 72.3%
[5]
  cell count: 50.9%
[6]
  cell count: 58.6%
[8]
  cell count: 101%
[9]
  cell count: 96.6%
[7]
  cell count: 59.9%

## CO[C@H]1C[C@@H]2CC[C@@H](C)[C@@](O)(O2)C(=O)C(=O)N2CCCC[C@H]2C(=O)O[C@H]([C@H](C)C[C@@H]2CC[C@@H](OCCO)[C@H](OC)C2)CC(=O)[C@H](C)/C=C(\C)[C@@H](O)[C@@H](OC)C(=O)[C@H](C)C[C@H](C)/C=C/C=C/C=C/1C [everolimus] + NC(=O)Nc1cc(-c2cccc(F)c2)sc1C(=O)N[C@H]1CCCNC1 [AZD7762] (first compound 0.02 µM, partner dose 0.02 µM)
[1]
  cell count: 82.1%
[2]
  cell count: 79.4%
[3]
  cell count: 72.4%
[4]
  cell count: 115%
[5]
  cell count: 68.4%
[6]
  cell count: 71.7%
[8]
  cell count: 121%
[9]
  cell count: 83%
[7]
  cell count: 90.5%

From the supplement of paper PMC4604168 (melanoma cell lines)
